± gives the standard deviation of the averaged measurements. Over roughly 4,100 sequences, “arbitrary fluorescence units” has its median near 780; the highest 2% begin near 22,000. Some of the results follow.
Molecular target: T1, ETS1 (UniProt P14921)
T1 sequence: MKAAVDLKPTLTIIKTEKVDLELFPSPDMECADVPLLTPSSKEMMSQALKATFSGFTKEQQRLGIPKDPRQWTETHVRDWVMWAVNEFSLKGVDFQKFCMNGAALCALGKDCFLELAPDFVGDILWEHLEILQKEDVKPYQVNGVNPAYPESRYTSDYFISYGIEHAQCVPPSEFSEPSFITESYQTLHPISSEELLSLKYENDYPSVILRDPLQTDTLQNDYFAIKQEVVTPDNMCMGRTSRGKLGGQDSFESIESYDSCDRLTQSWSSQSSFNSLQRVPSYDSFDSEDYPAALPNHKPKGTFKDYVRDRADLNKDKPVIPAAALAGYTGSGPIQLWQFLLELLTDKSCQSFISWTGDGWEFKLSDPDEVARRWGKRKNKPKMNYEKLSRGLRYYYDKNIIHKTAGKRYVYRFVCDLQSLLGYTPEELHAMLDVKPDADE
Assay: ETS1 binding intensity (PBM fluorescence), ETS1 alone (arbitrary fluorescence units); higher = stronger binding
Details: ETS1 concentration 1 nM; RUNX1 concentration 0 nM
Summary of the method: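 Full-length recombinant human ETS1 (1 nM, no RUNX1) was incubated, per standard PBM protocols, on double-stranded Agilent 4 × 180k arrays of 36-bp genomic probes whose RUNX1 partner site was mutated. Bound ETS1 was detected with anti-ETS1 antibody (Cell Signaling Technology 14069) and Alexa488-conjugated secondary antibody, then scanned on a GenePix 4400A. Binding level is spot fluorescence intensity, summarised over replicate spots (four printed per sequence) and not normalised.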

Sequence	ETS1 binding intensity
TCTCCTGTGTCCACGGCTGAAAACCTACATCCCGTC	484
AGAAAGAAAAGCCAAAGTGCCTCCAGGAAGTAAACA	470
TGTTTGCTGTTTAGACCCCAAAGATTCCTGTTGGTA	461
TACATAGGCGGAAGTGGCCTGAGGGCGCCGGAGTTG	6290
ACATGAGGAAACTGAAGCATAGAGAGGGTGGATAAC	474 ± 120
CCCCTGCAGGCCGCCGCTGCGCCCGTGCATCCGTCA	358
TAAATCCACCTCAGTACAAATGAACTTCCTTTTCAA	737
TAAGTGTTGGGGTTTTTTAGTTTCCTGTTCAGTTGC	1220
CAGTGAACAGTTTCCTGTTCCTGTGATTTTGACTTT	7430
TGTTGTGTAGTTTCAGAGATACTTCCTTGGGTTGCC	510
TTCAGGTGACTTCCGGCCGGACCTCTGAGGACGCGG	24100 ± 4200
GCGGGGCGGGGTACAGCGGAGTCATCCTGGCAACCC	583
TTTGTTGTTCCGGGTGCGAGGCGGCCGAAGCTTCCA	940
GGCCAAGGAAGCGGCCCCCTAAATCCGCTCCCGGGA	425 ± 5
CCTCATTTCCGGGCTGTTTGCGCGCAAGCCCTCATC	19800
GTGACTCCACGGTGTACAGCTTCCTTCACCCCACTT	498
CACCCGCCCCCCGGAAGTGCCGGTCGTTGGGCTCCG	5380
GTGCAGGCCGGAAGGAAAAGGGTTCTGGGGCTCATT	1570
GCAGGCGTGCGCTTCCGCTCCAACCGGCGCACTTCG	6480
CGATTCCGGATTGGTCCAATTCCAGCGCCGAAGCCC	673
GCGCACTTCCGGGCTGGTGAACGCGTTGACGTCACC	35400

Sequence	ETS1 binding intensity
GAAACTTCTCAAGGAAATAGCTGTGATAAACAATAC	459
CATTATTAACCTTCCGGCAAATCCCCAGAGCCGCCA	2460
GGGGCAGGAAGTGGAGGTTTGAAGTGCTTTAGAGTA	7390
ACGATCCAACAGCATTCACCCCGGAAGCCGCTTCCA	1340
TGACATGGCTTCCGCCTTGGGCTTTGGGGTCTCCCA	4230
CGGCCGCCCGGCTTCCTCTCCCGCTGCAGCCCTGGC	1680
TTGGTCAGGATGTGGCTGAAGAAGTCACAAGAAAAA	1090
AGGGAGGTAGTGCTGTAGAATTTTCCGCTATGGGTC	502
AGGGTGTTAGGGCCCCAAGGGCAGGAAGACCAAGTG	405
ACCATAAGGACCGGAAGCAGAGACAACACTGGTGCT	10400
CAGACCAGCCCAGGAAACAAGGAACCCCAAAGCCAC	538
GGAGAGCTCCTGCAGTCCAGCCGGATGACTGATGAG	365
CCATGTTTCCCGCTGGCAGTCGCGTGGGAAGTGACG	814
TGTTGTAGGGGAAGTGGTGTGTCGTATTCCTGGGGA	660
AACCCGGAAGTGGACACGGAGCTCGGCTGCAGCTCC	12400
CCTCTTATACGACACTGTGGGAAGCAGGAAGGGTGC	536
GGGCGCGCTTGCCGGGGAACGCGTTTCCCGCCGCAC	365
GGCACTCCGCGCCGGGGTAGGAACTTCCTCCCACCT	585
CACGTCCGTCCCCTACAACGCGGCCGTCCGCGCGGA	3990
CTGGGGTTGGGCTGTGTAGGCGCGGATTTCCTGGCT	500
CTCGGGATTTGGGGTCCACCCGGCGGAACTCGCGGC	299

Sequence	ETS1 binding intensity
ACCCCACCTACGGCCACCTCATCCTGAGTCTGAGAG	532
AGGTCTTGTAGCTCATTTTGTACCCACTTCCTGGGC	630
ATTTTGGGGTTTAACTAGATATTATCTATTTCCGGA	1780
GCACAGGCCGGAAGGAAAAGGGTTCTGGGGCTCATT	1620
CAGGGATTCCGGCTGAGTGCGGCCCCCTCAGCCTCC	606
AAGCTGCGCGTTCCATGGCGCGGATGCCGGGCCCTG	279
GACTATGTGCTTCCGGTCTCCAATACCCCAGGAGGG	19600
GTCCCCGACTTCCGCTCTCGGTTGGTAGTTGGCTTT	14600
TCCCCTGTCTTCCGGAGGCTGGGGCGCAGCGGCGCA	3430
AAGTGCAGACACCAGACACCCCACAGGAAGTCAAGT	1050
CGGCCTCTTCCGCCAAAACTCCGGCCCGCTGTCCCG	2790
GTTCAGCAGGAAGTGGATGTGGATGTGTGCTTGCCA	4140
ACTGTAGGCGCAGGCGCGGCTGCCGCTTCCTCTTTA	457
GTGCTTCCTTCAGTCTCACCTCCCAGCGGCGTGGGC	1400
GTTCTTATCCTGTGGCTCGTTTGGGGTTACTGACAT	1420
CGTTTCCTGTCTGGGACTGCGCCCACGCGATCACGT	38800
CGAGCAGCGCTTGCCGCGGGGGCGGAACAAACAGGC	377
TTATCTGGTAGGTGAGGTAAAGAAGGAAGTGGAGAA	670
TCCTCCCACGGGAAGTGCCGTAGGACCCCAGCCCGA	959
ATCCCGGACGGTGCACCGACCCGAGGCACACGGCAC	348
GGCAGCGCTTTTCGCTGTCGGAACGGAAGGGAAGCA	413
